In all, about 33,000 sequences were measured (“E-score (-0.5 to 0.5)”: median about -0.013, highest 2% from about 0.3 on). The list shows a part of the results.
target: T1, Msn1 (UniProt P22148); experiment: PBM E-score (8-mer binding enrichment) (E-score (-0.5 to 0.5)); higher = stronger / more preferred TF binding; most listed sequences are background and not binding sites; conditions: protein concentration: 200 nM; construct: GST-full length
T1 sequence: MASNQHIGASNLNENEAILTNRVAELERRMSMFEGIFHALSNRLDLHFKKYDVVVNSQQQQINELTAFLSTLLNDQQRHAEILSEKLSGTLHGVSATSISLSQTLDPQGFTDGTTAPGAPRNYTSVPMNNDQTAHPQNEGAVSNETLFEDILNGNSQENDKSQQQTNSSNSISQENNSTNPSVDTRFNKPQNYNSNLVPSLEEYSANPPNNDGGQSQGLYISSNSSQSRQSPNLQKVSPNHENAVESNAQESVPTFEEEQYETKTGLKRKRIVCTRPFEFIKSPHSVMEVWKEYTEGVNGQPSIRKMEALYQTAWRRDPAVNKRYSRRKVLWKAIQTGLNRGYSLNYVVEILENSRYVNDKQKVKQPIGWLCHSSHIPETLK
How it was run: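 The E-score, a modified Wilcoxon-Mann-Whitney statistic, was computed by the Universal PBM Analysis Suite for every ungapped eight-base word pooled with its reverse complement. Scans behind it were normalised with masliner after bound GST-tagged yeast transcription factors were detected with fluorescent anti-GST. The proteins, at about 100-200 nM, had been applied to universal all-10-mer Agilent arrays made double-stranded by primer extension.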

Sequence | PBM E-score
ATTTAAGC | 0.195
GTGCATTA | 0.0257
GCAGCCTA | -0.0732
TGTATACA | 0.261
GGCACCTA | -0.21
AGCATCTA | -0.17
CACATCGG | 0.0607
AAACATTG | -0.00791
AGTCGAGC | -0.201
AGTAATTC | 0.0549
AGAGAATA | 0.184
ACACCCAG | -0.123
TCCCTTCA | -0.0408
AACATCGG | 0.0605
AATAAGGG | 0.0173
CTATCCAA | -0.187
CTGTCCTC | 0.197
GACGTAGC | -0.0574
ACGCTACG | -0.0487
GTCAGGTA | -0.0461
ATAGAGCA | -0.102
GTATGTGA | 0.0957
CGTAAACA | 0.114
CATATGTA | 0.245
GGACCAAC | -0.114

Sequence | PBM E-score
TAGCTTCA | -0.119
CGACATGA | 0.207
AGCTGACG | -0.156
ATATTCTA | 0.07
TAGTGATA | -0.167
CTACTTCC | -0.0321
AAATGGGC | 0.0265
CGAGGTAC | 0.0203
CTTCATTA | 0.0655
CAGTACGC | -0.0992
CTGACTCA | -0.0338
ATAGTTTC | -0.111
ACTAGATA | 0.0228
CAATGTGG | 0.111
CCTAGGAA | 0.13
ATAAAGTG | 0.154
CTGAAGCC | -0.195
AATGGAAT | 0.238
CCTTTACG | 0.0807
GATGTCTA | 0.239
CAGTCGAA | -0.161
AAGTTATT | 0.0732
GGCCATCA | 0.058
ACCTTCAT | -0.0814
ACGCTAAA | -0.0302

Sequence | PBM E-score
GATCTGAA | -0.0317
ATTTTGTC | 0.468
GGCGAGAC | -0.0776
GCCTCTAA | -0.175
CGATAACC | 0.0193
CCTTTCCA | -0.12
ATCCATCA | -0.196
GGTCAGAC | -0.0518
AATACTCC | -0.0911
CAGTGCCC | -0.0952
CTTATCCC | -0.042
CGTCGGGC | -0.157
GAACTAAC | -0.0107
AACTGGAT | 0.0657
AATCTATC | -0.019
ACTGAGGC | 0.0565
CTGCCCGC | 0.0264
GCACGGGA | -0.12
GACCTTTA | 0.0307
GAAGCGTA | -0.176
CGGTTATA | 0.069
AACATCTT | 0.091
AGCATCGA | 0.0817
TGTGCGAA | -0.0498
ACCAGGCG | -0.245

Sequence | PBM E-score
GAAGTCTA | 0.0524
ATGCAAGA | 0.035
AGGATAAT | -0.00869
GCAATGAC | 0.0919
TCCCACAA | 0.0769
CGGTAGTC | -0.00298
AAAACATT | 0.133
CCATTAAG | -0.0405
CGTCGAGA | 0.0856
AATAACTA | 0.152
GACGTGGC | -0.185
CGGAGTAA | 0.0604
AGAAATAT | 0.181
ATTAAAAT | 0.273
TAATAAGA | 0.0818
CTTATTCA | 0.0853
CGGGACTC | 0.0112
ATCCCTGG | -0.198
AACATCGC | -0.0399
GCTTTGGA | 0.161
AATTGGAT | 0.157
CAACTCCA | -0.00874
CAAGTAGG | -0.0827
GACCTCTA | -0.102
AAACACGC | 0.106

Sequence | PBM E-score
ACGTCGCG | 0.138
GTCATAAA | 0.275
GACGATCA | -0.139
ATCCGCGC | 0.0649
TCCGCAGA | 0.123
AATCTCGG | 0.157
GATCAACA | 0.00359
CGTGAGAC | -0.0355
AAACCTGG | 0.0187
CACGAGCA | -0.15
CCCGCGGC | 0.057
CCCTCAGC | -0.166
AAATCACG | -0.0181
AGCCCCGG | -0.0483
GGCCTCAA | -0.0718
CTCCAAGC | -0.0605
GGGCGCGA | 0.0277
AGAGGAAG | -0.202
CATACATG | 0.23
ATGTTACG | 0.0808
ACTCGCAA | -0.0152
CAGCCTCC | -0.357
ACGCCCGG | -0.113
GGGTTTTA | -0.0678
CGGGGCTA | -0.274

Sequence | PBM E-score
AAGTCTTG | 0.0419
CTTTACTC | -0.00893
ATAAAGTA | 0.243
AAAAGCTA | -0.0112
CACCCTCA | -0.215
AGTACCCA | -0.0741
TCCTTAAA | 0.134
CTGCTCCC | -0.16
AGGAATTG | 0.105
GGCCGCGA | -0.0211
CCGAGTAG | 0.0326
ATCCCGGG | 0.0417
CAGCTGAA | 0.022
CGCACAAC | -0.14
TCTTCACA | 0.208
ATCTCCGA | 0.206
GTGATATA | -0.167
CACCTAGC | -0.116
ACTGAGTC | 0.101
ATGAAGCC | 0.00088
ACTAACCT | -0.0635
CTATACCC | -0.113
CTTACCAA | 0.0535
TGTCACAA | 0.378
CCAACACG | -0.144

Sequence | PBM E-score
GCCTGTCC | 0.153
CGGACGAG | 0.0588
GTACCGCA | 0.0295
AATGAATA | -0.0334
GATGCTGA | -0.264
ACGGAAAG | 0.174
GACGCTAC | -0.115
ACGACCCC | -0.273
CTACTAGC | 0.00983
GGCCCCCA | -0.442
ACTCAAAC | 0.145
GACTTACC | 0.103
CTCAGCGC | -0.102
AACAATTG | 0.116
GGGGGGTA | -0.0806
CAGATGAC | -0.0534
AACGGCAT | 0.144
ACAACAGT | 0.165
GCAACGGA | 0.168
CAGTACCG | 0.0766
TAAGCAAA | 0.0285
GTTTGAGA | 0.0155

Source: the supplement of paper PMC3334620
